The source gives no read counts; variants with many changes may rest on few reads.
B1: CPEB3 Ribozyme (parent)
chain: UAACAGGGGGCCACAGCAGAAGCGUUCACGUCGCAGCCCCUGUCAGAUUCUGGUGAAUCUGCGAAUUCUGCUGUAUAUCUC

Variants of: B1
Assay: self-cleavage, relative activity (ratio to wild type); higher = more cleavage; in vitro, sequencing
Summary of the method: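 CPEB3 self-cleaving ribozyme mutant libraries were made by rounds of error-prone PCR, barcoded, and transcribed in vitro with T7 RNA polymerase for 5 hours at 37°C. Cleavage occurred during transcription and a 15 min DNase I step before EDTA stop. RNAs were reverse transcribed with template switching and Illumina-sequenced, with DNA sequencing mapping barcodes to variants. Relative activity is the variant's cleaved/total read fraction divided by wild type's (minimum 5 reads), averaged across three batches.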

**Q.** Which self-cleavage does the source give for UGACAGGGGGCCACAGCAGAAGCGUUCGCGUCGCAGCCCCUGUCAGAUUCUGGUGAAUCUGCGGAUCCUGCUGUAUAUCUC [A2G A28G A64G U67C] here?
**A.** The self-cleavage was 0.2.

**Q.** For UGACAGGGGGCCACAGCAGAAGCGUUCGCGUAGCAGCCCCUGACAGAUUCUGGUGAAUCUGCAAAUUCUGCUGUAUAUCUC [A2G A28G C32A U43A G63A], which self-cleavage is on record?
**A.** Its self-cleavage is 0.34.

**Q.** For UGACAGGGGGCCACAGCAGAAGCGUUCGCGUCGCAGACCCCGUCAGAUUCUGGUGAAUCUGCGAAUUCUGCUGUACAUCUC [A2G A28G C37A U41C U76C], which self-cleavage is on record?
**A.** The self-cleavage was 0.09.

**Q.** Which self-cleavage does the source give for UGACAGGGGGCCACAGCAGAAGCGUUCGCGUCACUGCCCCUGUCAGGUUCUGGUGAAUCUGCGAAUUCUGCUGUAUAUCUC [A2G A28G G33A A35U A47G] here?
**A.** Its self-cleavage is 0.12.

**Q.** Which self-cleavage does the source give for UGACAGGGGGCCACAGCAGAAGCGUUCGCGUCGCACCCCCUGCCAGAUACUGGUGAAUCUGCGAAUUCCGCUGUAUAUCUC [A2G A28G G36C U43C U49A U69C] here?
**A.** The self-cleavage was 0.07.

**Q.** For UGACAGGGGGCCACAGCAGAAGCGUUCGCGUCGCAGCCCCUAUCAGAUUCUGGUGAAUCUGCGAAUUCUGCCGUAUAUCUC [A2G A28G G42A U72C], which self-cleavage is on record?
**A.** The self-cleavage was 0.47.

**Q.** Which self-cleavage does the source give for UGACAGGGGGCCACAGCAGAAGCGUUCGCGUCGCAGCCCCUGCCAGAUUCUGGUGAAUCUGCGAAUUCUGCUGUAUAUCUC [A2G A28G U43C] here?
**A.** The self-cleavage was 0.25.

**Q.** Which self-cleavage does the source give for UGACAGGGGGCCACAGCAGAAGCGUUCGCGUCGCAGCCCCUGUCAGAUUCUGGUGAAUCUGCGAAUUCUGCUGUAAAUCUC [A2G A28G U76A] here?
**A.** Its self-cleavage is 0.21.

**Q.** With UGACAGGGGGCCACAGCAGAAGCGUUCUCGUCGCUGCCCCUGUAAGAUUCUGGUGAAUCUGCGUAUUUUGCUGUAUAUCCC [A2G A28U A35U C44A A64U C68U U80C] as the variant, how does the self-cleavage read?
**A.** The self-cleavage was 0.04.

**Q.** With UGACAGGGGGCCACAGCAGAAGCGUUCUCGUCGCAGCCCCUGUCGGAUUCUGGUGAGUCUGCGAAUUCUGCUGUAUAUCUC [A2G A28U A45G A57G] as the variant, how does the self-cleavage read?
**A.** The self-cleavage was 0.14.

**Q.** With UGACAGGGGGCCACAGCAGAAGCGUUCUCGUCGCAGCCCCUGUCAGAUUCUGGUGAAUCUGCGAAUUCUGCUGAAUAUUUC [A2G A28U U74A C79U] as the variant, how does the self-cleavage read?
**A.** Its self-cleavage is 0.66.

**Q.** For UGACAGGGGGCCACAGCAGAAGCGUUCACGUCGCGGCCCCUGUCAGCAUCUGGUGAAUCUGCGAAUUCUGCUGUAUAUCUC [A2G A35G A47C U48A], which self-cleavage is on record?
**A.** The self-cleavage was 0.25.

**Q.** Which self-cleavage does the source give for UGACAGGGGGCCACAGCAGAAGCGUUCACGUCGCGGCCCCUGUCAGAUUCUGGUGGAUCUGCGAAUUCUGCUGUAUAUCUC [A2G A35G A56G] here?
**A.** The self-cleavage was 1.17.

**Q.** With UGACAGGGGGCCACAGCAGAAGCGUUCACGUCGCGGCCCCUGUCAGAUUCUGGUGGAUCAGCGAAUUCUGCUGUAUACCUC [A2G A35G A56G U60A U78C] as the variant, how does the self-cleavage read?
**A.** The self-cleavage was 0.25.

**Q.** Which self-cleavage does the source give for UGACAGGGGGCCACAGCAGAAGCGUUCACGUCGCGGCACCUGUCAGAUUCUGGUGAAUCUGCGAAUUCAGCUGUAUAUCUC [A2G A35G C38A U69A] here?
**A.** The self-cleavage was 0.27.

**Q.** Which self-cleavage does the source give for UGACAGGGGGCCACAGCAGAAGCGUUCACGUCGCGGCCCCAGUCAGAUUCUGGUGUAUCUGCGAAUUCUGCUGUAUAUCUC [A2G A35G U41A A56U] here?
**A.** Its self-cleavage is 0.16.

**Q.** With UGACAGGGGGCCACAGCAGAAGCGUUCACGUCGCGGCCCCUGUCAGAUUCUGGUGAAUCUGCGAAUUCUGCUGCAUAUCUC [A2G A35G U74C] as the variant, how does the self-cleavage read?
**A.** The self-cleavage was 1.21.

**Q.** With UGACAGGGGGCCACAGCAGAAGCGUUCACGUCGCGGCCCCUGUCAGAUUCUGGUGAAUCUGCGAAUUCUGCUGUAUAUCCC [A2G A35G U80C] as the variant, how does the self-cleavage read?
**A.** The self-cleavage was 1.21.

**Q.** Which self-cleavage does the source give for UGACAGGGGGCCACAGCAGAAGCGUUCACGUCGCUGCCCCUGUCAGAUUCUGGUGAAUCUGCGAGUUCUGCUGUAUAUCUC [A2G A35U A65G] here?
**A.** The self-cleavage was 0.25.

**Q.** For UGACAGGGGGCCACAGCAGAAGCGUUCACGUCGCUGCCCCAGUCAGAUUCUGGUGAAUCUGCGAAUUCUGCUGUAUAUCUC [A2G A35U U41A], which self-cleavage is on record?
**A.** Its self-cleavage is 0.05.

**Q.** For UGACAGGGGGCCACAGCAGAAGCGUUCACGUCGCUGCCCCUGCUAGAUUCUGGUGAAUCUGCGAACUCUGCUGUAUAUCUC [A2G A35U U43C C44U U66C], which self-cleavage is on record?
**A.** The self-cleavage was 0.19.

**Q.** Which self-cleavage does the source give for UGACAGGGGGCCACAGCAGAAGCGUUCACGUCGCUGCCCCUGUCAGAUCCUGGUGAAUCCGCGAAUUCUGCUGUAUAUCUC [A2G A35U U49C U60C] here?
**A.** Its self-cleavage is 0.16.

**Q.** With UGACAGGGGGCCACAGCAGAAGCGUUCACGUCGCAGCCCCUGUCCGAUUCUGGCGAAUCUGCGAGCUCUGCUGUAUAUCUC [A2G A45C U54C A65G U66C] as the variant, how does the self-cleavage read?
**A.** The self-cleavage was 0.34.

**Q.** Which self-cleavage does the source give for UGACAGGGGGCCACAGCAGAAGCGUUCACGUCGCAGCCCCUGUCGGAUUCUGGUGAAUCUGCGGGUUCUGCUGUAUAUCUC [A2G A45G A64G A65G] here?
**A.** The self-cleavage was 0.34.

**Q.** With UGACAGGGGGCCACAGCAGAAGCGUUCACGUCGCAGCCCCUGUCGGACUCUGGUAAAUCUGCGAAUUCUGCCGUAUAUCUC [A2G A45G U48C G55A U72C] as the variant, how does the self-cleavage read?
**A.** Its self-cleavage is 0.37.

**Q.** Which self-cleavage does the source give for UGACAGGGGGCCACAGCAGAAGCGUUCACGUCGCAGCCCCUGUCGGAUUCUGGCGAAUCCGCGAAUUCUGCUGUAUAUCUC [A2G A45G U54C U60C] here?
**A.** The self-cleavage was 0.59.

**Q.** Which self-cleavage does the source give for UGACAGGGGGCCACAGCAGAAGCGUUCACGUCGCAGCCCCUGUCGGAUUCUGGGGAAUCUGCGGAUCCUGCUGUAUUUCUC [A2G A45G U54G A64G U67C A77U] here?
**A.** The self-cleavage was 0.06.

**Q.** Which self-cleavage does the source give for UGACAGGGGGCCACAGCAGAAGCGUUCACGUCGCAGCCCCUGUCGGAUUCUGGUGAAACUGCGAAUUCUGCUGUAUAUCUC [A2G A45G U58A] here?
**A.** Its self-cleavage is 0.13.

**Q.** With UGACAGGGGGCCACAGCAGAAGCGUUCACGUCGCAGCCCCUGUCGGAUUCUGGUGAAUCUGCGAAUUCUGCUGUAUAACUC [A2G A45G U78A] as the variant, how does the self-cleavage read?
**A.** The self-cleavage was 0.88.

**Q.** For UGACAGGGGGCCACAGCAGAAGCGUUCACGUCGCAGCCCCUGUCUGAUUCCGGUGAACCUGCGAAUUCAGCUGUAUAUCUC [A2G A45U U51C U58C U69A], which self-cleavage is on record?
**A.** The self-cleavage was 0.11.

**Q.** For UGACAGGGGGCCACAGCAGAAGCGUUCACGUCGCAGCCCCUGUCAGGUACUGGUGAGUCUGCGAAUUCUGCUGUAUAUCUC [A2G A47G U49A A57G], which self-cleavage is on record?
**A.** Its self-cleavage is 0.55.

**Q.** With UGACAGGGGGCCACAGCAGAAGCGUUCACGUCGCAGCCCCUGUCAGGUCCUGGUGAAUCUGCGAAUUCUGCUGUAUACCUC [A2G A47G U49C U78C] as the variant, how does the self-cleavage read?
**A.** Its self-cleavage is 0.09.

**Q.** With UGACAGGGGGCCACAGCAGAAGCGUUCACGUCGCAGCCCCUGUCAGGUUCUGGAGAAUCUGCGAAUUCUGCUGUAUAUCUC [A2G A47G U54A] as the variant, how does the self-cleavage read?
**A.** The self-cleavage was 0.27.

**Q.** Which self-cleavage does the source give for UGACAGGGGGCCACAGCAGAAGCGUUCACGUCGCAGCCCCUGUCAGGUUCUGGCGAAUCUGCGAAUUCUGCUGUAUAUCUC [A2G A47G U54C] here?
**A.** Its self-cleavage is 0.65.
